Reference: the supplement of paper PMC10369915
The other results are listed elsewhere or left out. No stated cut-off is given here; in the data, active = 3.2 or more and inactive = the rest. Only a few entries rise above the background.

Key:
Assay in all cases: enrichment score (SH2-bound / input frequency) (ratio); bacterial display of known human phosphotyrosine sites (pTyr-Var adds point mutants) read by sequencing; higher = stronger binding; tyrosines were phosphorylated by kinases first
Conditions in all cases: peptide library: Human pTyr
[1] = biological target: SHP2 C-SH2 domain E139D
[2] = biological target: SHP2 C-SH2 domain wild-type
[3] = biological target: SHP2 N-SH2 domain L43F
[4] = biological target: SHP2 N-SH2 domain T42A
[5] = biological target: SHP2 N-SH2 domain T52S
[6] = biological target: SHP2 N-SH2 domain wild-type

Measured: enrichment score
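Further: displayed peptides selected on beads carrying the immobilized SH2 domain, with library peptides lacking any tyrosine serving as negative controls.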

B1: DYRK4_HUMAN_264 (peptide)
chain: EHQKVYTYIQSRFYR
inactive: [1] 2.56 | [2] 2.83 | [3] 2.16 | [4] 2.28 | [5] 3.04 | [6] 3.18

B2: DPYL2_HUMAN_499 (peptide)
chain: RGVPRGLYDGPVCEV
inactive: [1] 0.902 | [2] 0.902 | [3] 0.558 | [4] 0.583 | [5] 1.68 | [6] 1.5

B3: E2AK2_HUMAN_101 (peptide)
chain: EGLSMGNYIGLINRI
inactive: [1] 0.803 | [2] 0.9 | [3] 1.06 | [4] 0.905 | [5] 0.939 | [6] 0.868

B4: ACLY_HUMAN_131 (peptide)
chain: YATREGDYVLFHHEG
inactive: [1] 0.726 | [2] 0.852 | [3] 0.807 | [4] 0.766 | [5] 0.814 | [6] 0.654

B5: ACLY_HUMAN_131_YA (peptide)
chain: AATREGDYVLFHHEG
inactive: [1] 0.722 | [2] 0.634 | [3] 0.578 | [4] 0.587 | [5] 0.628 | [6] 0.617

B6: DYR1A_HUMAN_219_YA (peptide)
chain: KHDTEMKYAIVHLKR
inactive: [1] 2.77 | [2] 3.19 | [3] 2.24 | [4] 2.86 | [5] 2.74
active: [6] 3.35

B7: DUSP3_HUMAN_138 (peptide)
chain: SPTLVIAYLMMRQKM
inactive: [1] 2.27 | [2] 2.18 | [3] 2.47 | [4] 1.8 | [5] 2 | [6] 2.29

B8: EDNRB_HUMAN_439 (peptide)
chain: NFRSSNKYSSSGGGG
inactive: [1] 0.497 | [2] 0.387 | [3] 0.539 | [4] 0.618 | [5] 0.685 | [6] 0.611

B9: DYR1B_HUMAN_92_YA (peptide)
chain: KKVLNHGYDDDNHDA
inactive: [1] 0.874 | [2] 0.671 | [3] 0.92 | [4] 0.778 | [5] 0.851 | [6] 0.871

B10: ACK1_HUMAN_827 (peptide)
chain: SFASDPKYATPQVIQ
inactive: [1] 0.79 | [2] 0.662 | [3] 0.616 | [4] 0.565 | [5] 0.73 | [6] 0.786

B11: EF2_HUMAN_373 (peptide)
chain: KYRCELLYEGPPDDE
inactive: [1] 1.2 | [2] 1.18 | [3] 1.17 | [4] 1.2 | [5] 1.32 | [6] 1.44

B12: DPYL3_HUMAN_431 (peptide)
chain: NHQSAAEYNIFEGME
inactive: [1] 0.799 | [2] 0.822 | [3] 1 | [4] 0.947 | [5] 0.865 | [6] 0.883

B13: EGFR_HUMAN_1016 (peptide)
chain: DVVDADEYLIPQQGF
inactive: [1] 0.981 | [2] 0.796 | [3] 0.787 | [4] 0.746 | [5] 0.879 | [6] 0.679

B14: EGFR_HUMAN_1069 (peptide)
chain: EDSFLQRYSSDPTGA
inactive: [1] 0.601 | [2] 0.387 | [3] 0.478 | [4] 0.46 | [5] 0.504 | [6] 0.393

B15: DPYSL2_HUMAN_479 (peptide)
chain: KPFPDFVYKRIKARS
inactive: [1] 0.834 | [2] 1 | [3] 0.743 | [4] 0.949 | [5] 0.839 | [6] 0.823

B16: DYRK2_HUMAN_382 (peptide)
chain: EHQRVYTYIQSRFYR
inactive: [1] 2.04 | [2] 1.74 | [3] 1.46 | [4] 1.76 | [5] 1.86 | [6] 2.06

B17: DYN3_HUMAN_125 (peptide)
chain: IPINLRVYSPHVLNL
inactive: [1] 0.818 | [2] 0.605 | [3] 0.693 | [4] 0.683 | [5] 0.793 | [6] 0.692

B18: DYR1B_HUMAN_401 (peptide)
chain: PGHSPADYLRFQDLV
inactive: [1] 0.782 | [2] 1.47 | [3] 0.795 | [4] 1.06 | [5] 1.16 | [6] 0.796
